# In all, about 310,000 compounds went through this assay and about 2,200 (0.71%) showed an effect of 50% or more. Effects have a minus sign here. The list shows a part of the results.
# Target: human ether-à-go-go-related gene (hERG) potassium channel (human, UniProt Q12809)
# Test: primary screen, population patch clamp on CHO cells stably expressing hERG
# Chain of human ether-à-go-go-related gene (hERG) potassium channel (Q12809 whole entry, looked up): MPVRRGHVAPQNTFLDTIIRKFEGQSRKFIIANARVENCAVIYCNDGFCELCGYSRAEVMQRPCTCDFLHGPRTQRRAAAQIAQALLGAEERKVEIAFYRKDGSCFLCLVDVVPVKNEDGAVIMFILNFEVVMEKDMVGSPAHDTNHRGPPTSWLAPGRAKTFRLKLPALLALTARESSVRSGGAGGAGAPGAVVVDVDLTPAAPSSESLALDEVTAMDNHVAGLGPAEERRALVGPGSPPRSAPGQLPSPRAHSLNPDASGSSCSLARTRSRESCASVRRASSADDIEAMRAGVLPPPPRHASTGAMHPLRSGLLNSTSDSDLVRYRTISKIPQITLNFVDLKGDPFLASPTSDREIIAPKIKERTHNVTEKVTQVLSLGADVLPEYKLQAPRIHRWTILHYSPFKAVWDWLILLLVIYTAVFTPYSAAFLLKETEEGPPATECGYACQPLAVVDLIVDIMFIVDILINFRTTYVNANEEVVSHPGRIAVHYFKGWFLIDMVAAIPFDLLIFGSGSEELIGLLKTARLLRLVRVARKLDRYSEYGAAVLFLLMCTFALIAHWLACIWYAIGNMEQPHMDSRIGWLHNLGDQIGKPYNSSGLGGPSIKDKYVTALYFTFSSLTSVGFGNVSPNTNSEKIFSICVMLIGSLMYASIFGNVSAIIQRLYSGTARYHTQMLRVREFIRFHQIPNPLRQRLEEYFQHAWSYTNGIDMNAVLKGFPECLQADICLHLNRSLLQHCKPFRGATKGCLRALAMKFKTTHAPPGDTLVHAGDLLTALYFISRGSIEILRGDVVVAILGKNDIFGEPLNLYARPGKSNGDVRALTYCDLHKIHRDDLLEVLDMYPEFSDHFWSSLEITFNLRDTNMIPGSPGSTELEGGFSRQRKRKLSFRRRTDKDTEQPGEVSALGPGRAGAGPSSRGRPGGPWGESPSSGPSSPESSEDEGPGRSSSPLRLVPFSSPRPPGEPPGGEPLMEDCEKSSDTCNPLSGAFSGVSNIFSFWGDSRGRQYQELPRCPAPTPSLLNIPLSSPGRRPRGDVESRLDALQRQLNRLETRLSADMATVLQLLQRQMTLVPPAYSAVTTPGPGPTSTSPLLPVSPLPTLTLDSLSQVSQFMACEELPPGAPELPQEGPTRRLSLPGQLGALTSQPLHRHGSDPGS
row,Structure (SMILES),"hERG current change (%, negative = inhibition) at 1uM"
1,CC1(C)Cc2c(sc(NC(=O)c3ccc4ncsc4c3)c2C(N)=O)C(C)(C)N1,10.3%
2,CC(C)n1nnnc1-c1cc(Cl)cc(Cl)c1,-9.41%
3,O=C(CN1C(=O)S/C(=C\c2ccc(C(=O)O)cc2)C1=O)Nc1ccccc1,14.8%
4,Cc1cc(=O)[nH]c(SCC(=O)Nc2c(C)n(C)n(-c3ccccc3)c2=O)c1C#N,11.7%
5,COc1ccc(C2/C(=C(/O)c3ccccc3)C(=O)C(=O)N2CO)cc1 (stereo not shown),4.31%
6,O=C(CSC(=S)N1CCOCC1)Nc1nccs1,4.12%
7,CCOC(=O)C1CCN(C(=O)c2cccc(NC3=NC4CS(=O)(=O)CC4S3)c2)CC1 (stereo not shown),7.14%
8,CN(C)CCCn1c(SCc2ccc(Cl)cc2)nnc1-c1ccncc1.O=C(O)C(=O)O,7.61%
9,O=C(CCC1COc2ccccc2O1)NCc1ccco1 (stereo not shown),7.03%
10,Cc1nnc(N/N=C/c2ccccc2C(F)(F)F)n1N.Cl,12.2%
11,FC(F)(F)c1cccc(NC(=S)N2CCN(c3cccc(C(F)(F)F)c3)CC2)c1,10%
12,COc1cc(NC(=O)c2csc(N)n2)cc(C(=O)Nc2cccc(C(F)(F)F)c2)c1,7.83%
13,N#Cc1cc(C(=O)c2cc(Br)ccc2O)cn(C2CC2)c1=O,-7.81%
14,Cc1ccc(-c2nnc(N3CCC(C)CC3)c3ccccc23)cc1,7.11%
15,CCCCN(C(=O)CNC(=O)c1cccs1)C(C(=O)NC1CCCC1)c1ccncc1 (stereo not shown),12.8%
16,Nc1nc(Cl)c(C=O)c(N2CCCCC2)n1,0.77%
17,CCOC(=O)C1CCCN(C(=S)Nc2ccc(C)cc2C)C1 (stereo not shown),12%
18,Cc1ccc(NC(=S)N2CCN(S(=O)(=O)c3ccccc3)CC2)cc1,8.97%
19,CO/N=C(\Cn1ncc(N2CCCC2)c(Br)c1=O)c1ccc(Cl)cc1,12.4%
20,CCC(C)[C@H](NC(=O)[C@@H]1CSC2c3ccccc3C(=O)N21)C(=O)NCC1CCCO1 (stereo partly shown),20.6%
21,Cl.NC(CCC(=O)O)C12CC3CC(CC(C3)C1)C2 (stereo not shown),5.72%
22,Cc1ccc(OCC(O)CN2CCN(c3ccccn3)CC2)c(C)c1.Cl (stereo not shown),-1.95%
23,O=C(CC(C(=O)O)c1cccc(Cl)c1)c1ccccc1 (stereo not shown),12.9%
24,COc1ccc(NC(=O)CN(C)CC(=O)Nc2ccccc2SC)cc1,4.92%
25,CCN1CCCC1CNC1=NCCCCC1 (stereo not shown),9.24%
